Columns and labels:
[1] = molecular target: peptide 16 (His-tagged, 38-mer); assay: ITC
[2] = molecular target: peptide 33 (His-tagged, 38-mer); assay: ITC; polyC
[3] = molecular target: peptide 33 (His-tagged, 38-mer); assay: ITC; NusG-CTD + ATP
[4] = molecular target: peptide 33 (His-tagged, 38-mer); assay: ITC; poly dC34 + ATP

peptide 33 (His-tagged, 38-mer), sequence (P0AG30 whole entry P167L): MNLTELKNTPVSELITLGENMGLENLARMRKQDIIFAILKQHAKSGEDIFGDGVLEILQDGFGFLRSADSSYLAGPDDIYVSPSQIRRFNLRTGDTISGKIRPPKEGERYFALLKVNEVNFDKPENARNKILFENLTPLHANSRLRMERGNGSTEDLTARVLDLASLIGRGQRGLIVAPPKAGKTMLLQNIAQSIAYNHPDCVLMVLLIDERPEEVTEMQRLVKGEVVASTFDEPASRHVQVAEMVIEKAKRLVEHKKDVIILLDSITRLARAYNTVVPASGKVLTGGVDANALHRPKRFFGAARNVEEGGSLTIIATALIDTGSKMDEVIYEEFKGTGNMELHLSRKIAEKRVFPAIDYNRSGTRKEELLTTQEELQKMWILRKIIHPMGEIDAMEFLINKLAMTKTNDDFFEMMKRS
peptide 16 (His-tagged, 38-mer), sequence (P0AG30 whole entry P167L): as above

B1: P167L Rho (natural protein)
chain: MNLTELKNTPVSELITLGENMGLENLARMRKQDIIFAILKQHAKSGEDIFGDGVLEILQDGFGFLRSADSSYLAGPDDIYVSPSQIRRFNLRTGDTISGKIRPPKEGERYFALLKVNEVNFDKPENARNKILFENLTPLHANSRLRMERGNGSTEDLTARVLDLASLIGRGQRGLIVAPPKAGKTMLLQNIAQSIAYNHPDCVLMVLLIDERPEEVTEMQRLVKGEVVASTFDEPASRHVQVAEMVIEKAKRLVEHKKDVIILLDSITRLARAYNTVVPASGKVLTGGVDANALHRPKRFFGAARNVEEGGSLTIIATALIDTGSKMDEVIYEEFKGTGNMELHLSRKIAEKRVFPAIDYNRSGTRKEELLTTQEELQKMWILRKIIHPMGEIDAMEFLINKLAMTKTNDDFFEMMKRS
Q: What does the source list for B1?
A: Kd [1]: 214 nM; Kd [2]: 164 nM; Kd [3]: 26.5 nM; Kd [4]: 255 nM

Reference: article PMC8141534 (2021)
